According to PubChem BioAssay (Tox21):
Several values for one entry are separate records, joined by “and”; a condition that tells them apart may be missing. Equal entries are not always repeated. The shares of active, inactive and inconclusive entries below differ from those in the screen. Where the call is inconclusive, the potency comes from a doubtful curve fit. Activity calls are given as the source filed them. Calls follow the shape of the dose curve; as a rule, active = well fitted cell-killing curve with a large enough effect in the repeat runs; inconclusive = weak or mixed curves, or effect the other way; inactive = no such curve, though single readings can be large or run the other way.

Assay: qHTS assay to identify small molecule antagonists of the progesterone receptor (PR) signaling pathway - cell viability counter screen (AID 1346798); also: nearly all actives have a fitted effect of over 50% in size
Settings: PR-UAS-bla HEK293T viability, CellTiter-Glo luminescence, 16 h; series mostly up to 92.4 µM; activity change, negative = cytotoxicity: at the top concentration
From the text: National Center for Advancing Translational Sciences [NCATS]
NIH Chemical Genomics Center [NCGC]
U.S. Environmental Protection Agency [EPA]
National Institutes of Environmental Health Sciences [NIEHS]
National Toxicology Program [NTP]
U.S. Food and Drug Administration [FDA]
Progesterone receptor (PR), a nuclear hormone receptor, plays an important role in development, metabolic homeostasis and reproduction. It is activated by the steroid hormone progesterone. Endocrine disrupting chemicals (EDCs) and their interactions with steroid hormone receptors like PR causes disruption of normal endocrine function. To identify the compounds that inhibit PR signaling, a PR-UAS-bla GripTite cell line i.e. PR-UAS-bla HEK293T (Invitrogen, Carlsbad, CA, USA) containing a beta-lactamase reporter gene under the control of an UAS response element was used to screen Tox21 10K compound library. The cytotoxicity of the Tox21 compound library against the PR-bla cell line was tested in parallel by measuring the cell viability using CellTiter-Glo assay in the same wells.
Tox21 Assay Protocol Summary:
PR-UAS-bla HEK293T cells were dispensed at 3,000 cells/4 uL of assay medium containing 2% charcoal stripped FBS per well into black wall/clear-bottom 1536-well plates using a Multidrop Combi (ThermoFisher Scientific, Waltham, MA) dispenser. After the assay plates were incubated at a 37C and 5% CO2 for 4 hr, 23 nL of compounds dissolved in DMSO, positive controls or DMSO only was transferred to the assay plate by a Pintool station (Kalypsys, San Diego, CA), followed by addition of 1 uL of R5020 in assay medium using a Flying Reagent Dispenser (FRD, Aurora Discovery, San Diego, CA). The plates were incubated at 37C and 5% CO2 for 16 hr. Then 1 uL of LiveBLAzer B/G FRET substrate was added using a Flying Reagent Dispenser, the plates were incubated at room temperature for 2 hours, and fluorescence intensity was measured by an Envision plate reader (PerkinElmer, Shelton, CT). For cell viability readout that measures cytotoxicity, 4 uL/well of CellTiter-Glo reagent was added into the assay plates using a FRD. After 30 min incubation at room temperature, the luminescence intensity in the plates was measured using a ViewLux (PerkinElmer) plate reader.
% is scaled to controls: 0 for no effect and ±100 for the full control effect; potency is read from the fitted curve at half-maximal effect; tags tell the direction and shape of the fitted curve.

SMILES	activity change, negative = cytotoxicity	Potency
CCN	inactive: 3.58%	
CC(C)(C#N)N=NC(C)(C)C#N		inconclusive: 1.86 µM [cytotoxic, partial curve, poor fit]
CCC(COC(=O)c1cc(OC)c(OC)c(OC)c1)(c1ccccc1)N(C)C (stereo not given)		inconclusive: 11.9 µM [rising, full curve, poor fit]
C=CCOC(Cn1ccnc1)c1ccc(Cl)cc1Cl (stereo not given)		active: 24.4 µM and active: 15.4 µM and active: 11.9 µM
NCC(CC(=O)O)c1ccc(Cl)cc1 (stereo not given)	inactive: -8.73% [at 0.348 µM]	
O=C(O)C(Cl)Cl		inactive
CCCCN=C=O		inconclusive: 2.7 µM [rising, single point]
COP(=O)(OC)OC		inconclusive: 13.8 µM [rising, full curve]
CCCN(CCOc1c(Cl)cc(Cl)cc1Cl)C(=O)n1ccnc1		active: 78.6 µM and inconclusive: 43.3 µM [cytotoxic, single point]
N#CCCl		inconclusive: 28.4 µM [cytotoxic, single point]
Clc1ccc(CSC(Cn2ccnc2)c2ccc(Cl)cc2Cl)cc1 (stereo not given)		active: 6.68 µM
CCN(CC)C(=O)[C@@H]1C=C2c3cccc4[nH]cc(c34)C[C@H]2N(C)C1		inconclusive: 63.6 µM [rising, partial curve]
CCCCNP(N)(N)=S	inactive: -3.55%	
CC(c1ccc(O)cc1)c1ccc(O)cc1		inconclusive: 72.1 µM [cytotoxic, single point] and inconclusive: 77 µM [cytotoxic, single point]
CC(c1ccccc1)(c1ccc(O)cc1)c1ccc(O)cc1		inconclusive: 77 µM [cytotoxic, single point]
COc1cc(C=O)cc2c1[C@H](COC(N)=O)[C@]1(OC(C)=O)ON2C[C@H]2[C@@H]1N2C(C)=O		inconclusive: 24.3 µM [rising, full curve]
CON(C)C(=O)Nc1ccc(Cl)cc1		inconclusive: 27.3 µM [rising, single point]
CC(C)CP(=S)(S)CC(C)C		inconclusive: 1.22 µM [cytotoxic, full curve, poor fit]
c1ccc2c(c1)Nc1ccccc1S2		inconclusive: 77 µM [rising, single point]
CC(COc1ccc(Oc2ccccc2)cc1)Oc1ccccn1 (stereo not given)		inconclusive: 27.3 µM [rising, partial curve]

SMILES	activity change, negative = cytotoxicity	Potency
COC(=O)Nc1cccc(OC(=O)Nc2cccc(C)c2)c1		inconclusive: 4.86 µM [rising, partial curve]
O=C1c2ccccc2C(=O)C1C(=O)C(c1ccccc1)c1ccccc1		inconclusive: 33.5 µM [rising, single point]
CO/C=C(/C(=O)OC)c1ccccc1Oc1cc(Oc2ccccc2C#N)ncn1		active: 51.8 µM
CC1(C)CC/C(=C/c2ccc(Cl)cc2)C1(O)Cn1cncn1 (stereo not given)		inconclusive: 1.21 µM [cytotoxic, full curve]
CN(C1CCCCC1)C1CCCCC1	inactive: -16.7%	
Clc1ccc(CCC(Cn2ccnc2)Sc2c(Cl)cccc2Cl)cc1 (stereo not given)		active: 11.9 µM
C=CC(C)=O	inactive: 21.4%	
O=C1C[C@@H]2OCC=C3CN4CC[C@]56c7ccccc7N1[C@H]5[C@H]2[C@H]3C[C@H]46		inconclusive: 11.9 µM [rising, single point]
CC1CCC(=O)O1 (stereo not given)		inconclusive: 34.4 µM [rising, single point]
O=[N+]([O-])c1c2ccccc2cc2ccccc12		active: 27 µM
O=C(Nc1ccccc1)Nc1cnns1		inconclusive: 68.5 µM [rising, single point]
NNc1ccccc1		inconclusive: 6.11 µM [cytotoxic] and inconclusive: 8.63 µM [cytotoxic, full curve]
Cc1cc2c3c(c1)C(c1ccccc1)=N[C@@H](NC(=O)c1ccncc1)C(=O)N3CC2	inactive: 8.74%	
O=c1[nH]c2ccccc2n1CCCN1CCC(n2c(=O)[nH]c3cc(Cl)ccc32)CC1		inconclusive: 33.5 µM [cytotoxic, single point]
O=C=Nc1ccc(Cl)cc1		inconclusive: 0.611 µM [cytotoxic, full curve]
O=Cc1ccc(Cl)cc1Cl		inconclusive: 0.0195 µM [cytotoxic, partial curve, poor fit]
Nc1ccc(-c2ccccc2)cc1		inactive
C[C@]12C/C(=C/O)C(=O)C[C@@H]1CC[C@@H]1[C@@H]2CC[C@@]2(C)[C@H]1CC[C@]2(C)O		active: 69.2 µM and inconclusive: 33.5 µM [cytotoxic, single point]
C[C@]12CC[C@H]3[C@@H](CCC4=CC(=O)CC[C@@]43C)[C@@H]1CC[C@@H]2O		inconclusive: 54.1 µM [rising, partial curve, poor fit]
O=C(CCl)Nc1ccccc1		active: 19.3 µM
